# Measurements reported in PubChem BioAssay AID624417 (National Center for Advancing Translational Sciences (NCATS), 2012).
# Values joined by “and” are separate entries in the source; they are usually repeats but may differ in a detail not shown here. Equal entries are not always repeated. Screen size: about 410,000 compounds; about 6,400 (1.6%) were called active. This list was built around the results that the source calls inconclusive (neither active nor inactive); the mix of calls is not that of the screen. Calls follow the shape of the dose curve; as a rule, active = well fitted inhibition curve with a large enough effect; inconclusive = small, poorly fitted or top-dose-only effect; inactive = no such curve, though single readings can be large or run the other way. Potencies beside an inconclusive call are fits to weak or partial responses and may not hold up.
# Target: Glucagon-like peptide 1 receptor (Homo sapiens) (UniProt P43220)
# Test: qHTS of GLP-1 Receptor Inverse Agonists (Inhibition Mode); also: nearly all actives have a fitted effect of over 55% in size
# Settings: HEK293 GLP-1R CRE-luciferase, luminescence, 24 h, GLP-1R form is constitutively active; activity change, negative = inhibition: at 38.3 µM (top of the series) unless noted
# Summary of the method: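 Cells are plated, allowed 12 hours at 37 deg C, then treated with compounds for 24 hr before luciferase detection reagent is added and luminescence is read after 12 min at room temperature. The HEK293 line carries constitutively active GLP-1R with a cAMP-responsive reporter.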
# % is scaled to controls: 0 for no effect and ±100 for the full control effect; potency is read from the fitted curve at half-maximal effect; tags tell the direction and shape of the fitted curve.
# Sequence of UniProt P43220 (P43220 whole entry, looked up): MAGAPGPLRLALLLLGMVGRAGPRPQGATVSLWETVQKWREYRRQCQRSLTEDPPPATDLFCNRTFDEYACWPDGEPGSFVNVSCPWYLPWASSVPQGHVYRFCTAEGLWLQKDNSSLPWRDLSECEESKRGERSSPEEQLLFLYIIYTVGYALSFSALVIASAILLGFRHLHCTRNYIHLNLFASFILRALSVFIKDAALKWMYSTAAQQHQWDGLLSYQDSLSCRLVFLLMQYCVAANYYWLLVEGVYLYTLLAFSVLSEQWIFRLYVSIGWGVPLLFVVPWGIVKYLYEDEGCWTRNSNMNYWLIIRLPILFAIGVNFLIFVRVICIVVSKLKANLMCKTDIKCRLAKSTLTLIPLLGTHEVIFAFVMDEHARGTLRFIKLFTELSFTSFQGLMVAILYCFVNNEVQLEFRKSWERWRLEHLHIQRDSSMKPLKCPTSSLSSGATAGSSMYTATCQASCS
Compound,Potency,"activity change, negative = inhibition"
CC1(C(=O)Nc2cccc(C(F)(F)F)c2)Cc2c(-c3ccc4c(c3)OCO4)ccnc2O1 (stereo unspecified),"inconclusive: 10 µM [inhibitor, partial curve, poor fit]",–
COc1ccc(OCC(O)CN2CCN(c3ccccc3)CC2)cc1 (stereo unspecified),–,inactive: -28.5%
Cc1c(Cc2ccccc2)c(NCCCO)n2c(nc3ccccc32)c1C#N,"inconclusive: 11.2 µM [inhibitor, single point]",–
OC(CNC1CCCCC1)COCCOc1ccc(Br)cc1 (stereo unspecified),"inconclusive: 10 µM [inhibitor, partial curve, poor fit]",–
COc1cccc(CNCC(=O)NC(=O)NC2CCCC2)c1,"inconclusive: 8.91 µM [inhibitor, partial curve, poor fit]",–
CCN(CC)c1ccc(NC(=S)NC(=O)Cc2ccccc2)cc1,"inconclusive: 11.2 µM [inhibitor, partial curve, poor fit]",–
CC1(C(=O)Nc2ccc(Cl)c(Cl)c2)CCN1CCc1ccccc1 (stereo unspecified),"inconclusive: 14.1 µM [inhibitor, single point]",–
CCCCNC(=O)CSc1nc2n[nH]c(C)c2c(=N)n1-c1ccccc1CC,–,inactive: 8.47%
CCNc1nc(NCC)nc(N/N=C(\C)c2ccc(OC)cc2)n1,"inconclusive: 11.2 µM [inhibitor, partial curve, poor fit]",–
COc1ccc(/C=C(/NC(=O)c2ccccc2)C(=O)N2CCCC2)cc1,"inconclusive: 10 µM [inhibitor, partial curve, poor fit]",–
CC1CCCC(NC(=O)C2N(CCCN3CCCC3)C(=O)C3C(C(=O)Nc4cccc(Cl)c4)C4C=CC32O4)C1C (stereo unspecified),"inconclusive: 10 µM [inhibitor, single point]",–
COc1ccc(NC(=O)NC2CCCc3ccccc32)c(OC)c1 (stereo unspecified),"inconclusive: 10 µM [inhibitor, single point]",–
Cc1cccc(NC(=O)c2c(Br)sc3c2CCCC3)c1,"inconclusive: 28.2 µM [inhibitor, single point]",–
Cc1ccc(NC(=O)COc2ccc(Br)cc2CO)cc1S(=O)(=O)N1CCOCC1,"inconclusive: 28.2 µM [inhibitor, single point]",–
CCCN(CC(=O)Nc1ccccc1C)C(=O)/C=C/c1ccc(S(=O)(=O)N2CCCCCC2)cc1,"inconclusive: 17.8 µM [inhibitor, single point]",–
O=C(NCC1COc2ccccc2O1)C1CCCN(S(=O)(=O)c2cccc3cccnc23)C1 (stereo unspecified),"inconclusive: 3.55 µM [inhibitor, partial curve, poor fit]",–
COc1cc(OC)c(N(C)S(=O)(=O)c2cccc(C(=O)Nc3nc(C)cs3)c2)cc1Cl,"inconclusive: 11.2 µM [inhibitor, single point]",–
CCCOC(=O)/C(C(N)=NCc1ccccc1)=C(\O)OCCC,"inconclusive: 28.2 µM [inhibitor, single point]",–
COc1ccccc1N1CCN(C(=O)CSc2nc(-c3ccc(C(C)C)cc3)no2)CC1,"inconclusive: 12.6 µM [inhibitor, partial curve, poor fit]",–
COc1ccc(C)cc1NC(=O)CN(C)C1CCCCC1,"inconclusive: 11.2 µM [inhibitor, partial curve]",–
COc1ccc(-c2noc(-c3ccccc3NC(=O)c3cc(OC)c(OC)c(OC)c3)n2)cc1,–,inactive: 8.94%

Compound,Potency,"activity change, negative = inhibition"
CCCN1CCN(C(=S)Nc2ccc([N+](=O)[O-])cc2)CC1,"inconclusive: 31.6 µM [inhibitor, partial curve, poor fit]",–
C=CCN1C(=O)/C(=C\C=C2\N(C)c3ccccc3C2(C)C)SC1=S,"inconclusive: 0.501 µM [inhibitor, full curve, poor fit]",–
CN1CCN(c2ccccc2NC(=O)c2ccc(-c3ccc(Cl)c(Cl)c3)o2)CC1,–,inactive: -4.5%
Cc1c(C#N)c(NC(=O)CCl)n(Cc2ccc(F)cc2)c1C,"inconclusive: 31.6 µM [inhibitor, single point]",–
Cc1cnc(NC(=O)CSc2ccc(Cl)cc2)s1,"inconclusive: 28.2 µM [inhibitor, partial curve, poor fit]",–
Clc1ccccc1Sc1cnc2ccccc2n1,"inconclusive: 12.6 µM [inhibitor, single point]",–
CCc1nc2ccc(C(=O)Nc3cccc(OC)c3)cn2c1N(C)CCCc1ccccc1,"inconclusive: 14.1 µM [inhibitor, partial curve, poor fit]",–
NC(=O)c1ccc2nc(NC(=O)c3ccc(N)cc3)sc2c1,"inconclusive: 7.94 µM [inhibitor, partial curve, poor fit]",–
CC(=O)C[C@H](O)CC(=O)[C@@H]1OC(=O)CCCCCCCCc2ccccc21,"inconclusive: 20 µM [inhibitor, single point]",–
Cc1cc(C(=O)CN2C(=O)C(=O)N(Cc3ccco3)C2=O)c(C)n1CCc1ccc(F)cc1,"inconclusive: 5.62 µM [inhibitor, full curve, poor fit]",–
COc1ccc(NC(=O)C(Cc2ccccc2)n2cccc2)c(OC)c1 (stereo unspecified),"inconclusive: 31.6 µM [inhibitor, single point] and inconclusive: 10 µM [inhibitor, partial curve]",–
Cc1ccc(S(=O)(=O)n2cc(-c3ccccc3)c3ccccc32)cc1,"inconclusive: 1 µM [inhibitor, full curve, poor fit]",–
O=C(Nc1ccc2c(c1)CCCN2C(=O)c1ccccc1)c1ccccc1Br,"inconclusive: 4.47 µM [inhibitor, partial curve]",–
O=S(=O)(Cc1ccccc1Cl)NCc1ccccc1,"inconclusive: 28.2 µM [inhibitor, single point]",–
CC(=O)C(Cc1ccccc1)NC(=O)CN(C)Cc1ccccc1Cl (stereo unspecified),"inconclusive: 20 µM [inhibitor, partial curve, poor fit]",–
CCOc1ccc(-c2ccc(CO)o2)cc1N,"inconclusive: 11.2 µM [inhibitor, single point]",–
Cc1cccc(C)c1NC(=O)CN1CCN(C(=O)CNC(=O)Cc2cccc3ccccc23)CC1,"inconclusive: 10 µM [inhibitor, single point]",–
O=C(NC1CCCC1)c1ccc2c(c1)N(Cc1ccc(F)cc1)C(=O)c1ccccc1S2,"inconclusive: 14.1 µM [inhibitor, single point]",–
Cc1ccc2[nH]cc(CCNC(=O)Nc3ccccc3)c2c1,"inconclusive: 8.91 µM [inhibitor, partial curve]",–
COCCNC(=O)CSc1nc(-c2ccccc2)c(-c2ccccc2)o1,"inconclusive: 28.2 µM [inhibitor, single point]",–
CN(C(=O)c1cc2c(=O)n3ccccc3nc2n1C)C1CCCCC1,–,inactive: 32.1%

Compound,Potency,"activity change, negative = inhibition"
Cc1cc(-c2cc(-c3ccc(Cl)cc3)nc(N)c2C#N)co1,"inconclusive: 11.2 µM [inhibitor, single point]",–
Cc1ccc(S(=O)(=O)N2CCc3cc4c(cc3C2C)OCCCO4)cc1 (stereo unspecified),"inconclusive: 7.94 µM [inhibitor, partial curve, poor fit]",–
CCC(CO)NCc1ccc(-c2ccccc2)cc1 (stereo unspecified),"inconclusive: 14.1 µM [inhibitor, partial curve, poor fit]",–
Cc1nn(-c2ccc(Cl)cc2)c(Cl)c1/C=N/NC(=O)c1ccc(NS(=O)(=O)c2cccs2)cc1,"inconclusive: 28.2 µM [inhibitor, single point]",–
CC[C@@]12C(=O)N(c3cccc(Br)c3)C(=O)N1[C@H](c1ccc(Cl)cc1)[C@@H]1C(=O)N(C3CCCCC3)C(=O)[C@@H]12,"inconclusive: 10 µM [inhibitor, partial curve, poor fit]",–
CCCOc1ccc(-c2nnn(CC(=O)c3ccc4c(c3)OCCO4)n2)cc1,"inconclusive: 14.1 µM [inhibitor, single point]",–
O=C(NCCC1=CCCCC1)c1ccc2c(c1)N(Cc1ccccc1)C(=O)c1ccccc1S2(=O)=O,"inconclusive: 28.2 µM [inhibitor, single point]",–
CCOC(=O)c1noc2ncn(CC(=O)O)c(=O)c12,"inconclusive: 28.2 µM [inhibitor, single point]",–
CC(=O)CCc1ccc(OCC(=O)Nc2cccc(S(=O)(=O)N(C)c3ccccc3)c2)cc1,active: 11.2 µM,–
O=C(N/C(=C/c1ccc(Br)cc1)C(=O)N1CCOCC1)c1cccs1,"inconclusive: 11.2 µM [inhibitor, single point]",–
O=C(NCCN1C(=O)S/C(=C\c2ccccc2)C1=O)C1CCN(S(=O)(=O)c2cccs2)CC1,–,inactive: -7.91%
O=C(Cn1cc(SCc2ccccc2Cl)c2ccccc21)N1CCCCCC1,"inconclusive: 22.4 µM [inhibitor, single point]",–
COc1ccc(OC)c(CNS(=O)(=O)c2ccc(-c3cc(C(F)(F)F)on3)s2)c1,"inconclusive: 10 µM [inhibitor, partial curve, poor fit]",–
O=C(COc1ccc(Cl)cc1)NC1=NN(c2ccccc2)C(=O)C1,"inconclusive: 10 µM [inhibitor, single point]",–
CCc1ccccc1-n1nnnc1SCC(=O)Nc1ccc(N2CCN(C)CC2)cc1,active: 1.78 µM,–
CCN1C(=O)CC(C(=O)Nc2ccc(OC)cc2)SC1=Nc1ccc(C)c(C)c1 (stereo unspecified),–,inactive: -21.7%
Cc1nn2c(N3CCN(CCO)CC3)c3c(nc2c1-c1ccccc1)CCCC3,active: 3.55 µM,–
O=C(Cn1cnc2c(cnn2-c2ccccc2)c1=O)N1CCCc2ccccc21,"inconclusive: 6.31 µM [inhibitor, partial curve, poor fit]",–
CN(Cc1nc2ccccc2n1C)c1ccccc1,"inconclusive: 12.6 µM [inhibitor, single point]",–
